Data reported in patent US20210379195A1, “METHODS FOR ALLOGENEIC HEMATOPOIETIC STEM CELL TRANSPLANTATION” (Magenta Therapeutics, Inc., priority 2018, published 2021).

Target: CD117 (Homo sapiens, UniProt P10721)
Assay: In vitro stem cell factor (SCF)-dependent cell proliferation assay (neutral vs antagonist)
Format: cell-based
Parameters: endogenous in cells; host or cells: CD34+ cells dependent on SCF
Excerpt: Neutral antibodies can be identified using, for example, an in in vitro stem cell factor (SCF)-dependent cell proliferation assay. In an SCF dependent cell proliferation assay, a neutral CD117 antibody will not kill CD34+ cells that are dependent on SCF to divide, as a neutral antibody will not block SCF from binding to CD117 such as to inhibit CD117 activity.

Chain of CD117 (P10721 26-976): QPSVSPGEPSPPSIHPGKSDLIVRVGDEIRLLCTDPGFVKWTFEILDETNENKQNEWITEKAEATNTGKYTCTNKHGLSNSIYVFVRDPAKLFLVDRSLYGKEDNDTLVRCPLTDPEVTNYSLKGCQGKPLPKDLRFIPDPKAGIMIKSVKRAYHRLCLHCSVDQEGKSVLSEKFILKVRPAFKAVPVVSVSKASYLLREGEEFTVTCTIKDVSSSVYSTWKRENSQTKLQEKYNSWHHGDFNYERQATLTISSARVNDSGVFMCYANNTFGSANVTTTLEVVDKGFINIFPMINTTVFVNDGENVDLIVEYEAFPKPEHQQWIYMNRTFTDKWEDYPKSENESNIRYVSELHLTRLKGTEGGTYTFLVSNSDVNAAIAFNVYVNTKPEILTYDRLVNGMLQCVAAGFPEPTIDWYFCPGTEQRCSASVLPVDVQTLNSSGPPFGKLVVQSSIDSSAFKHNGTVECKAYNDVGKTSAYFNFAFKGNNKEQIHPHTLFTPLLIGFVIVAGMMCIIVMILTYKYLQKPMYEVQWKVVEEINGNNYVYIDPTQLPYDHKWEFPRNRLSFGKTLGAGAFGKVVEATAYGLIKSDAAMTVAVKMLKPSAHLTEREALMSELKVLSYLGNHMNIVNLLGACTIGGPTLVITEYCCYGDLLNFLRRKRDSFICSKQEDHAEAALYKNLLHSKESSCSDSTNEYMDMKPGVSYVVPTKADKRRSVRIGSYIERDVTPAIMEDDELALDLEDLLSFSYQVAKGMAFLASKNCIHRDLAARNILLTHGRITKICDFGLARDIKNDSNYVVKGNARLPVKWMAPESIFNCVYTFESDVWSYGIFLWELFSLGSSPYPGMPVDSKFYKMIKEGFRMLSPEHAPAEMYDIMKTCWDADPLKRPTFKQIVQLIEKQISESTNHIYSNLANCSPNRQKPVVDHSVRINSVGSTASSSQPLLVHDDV

Row | Molecule | effect on CD117 activity (neutral or antagonist antibody)
1 | Ab58: anti-CD117 antibody, VH SEQ ID NO: 59, VL SEQ ID NO: 60 (antibody, V domains shown) VH: [about 100 residues not written out]GPPTYHTNYYYMDVWGKGTTVTVSS VL: DIQMTQSPSSVSASVGDRVTITCRASQGISSWLAWYQQKPGKAPKLLIYAASSLQSGVPSRFSGSGSGTDFTLTISSLQPEDFATYYCQQTNSFPYTFGGGTKVEIK | neutral
2 | Ab66: anti-CD117 antibody, VH SEQ ID NO: 79, VL SEQ ID NO: 80 (antibody, V domains shown) VH: EVQLVESGGGLVQPGGSLRLSCAASGFTFSDHYMDWVRQAPGKGLEWVGRTRNKASSYTTEYAASVKGRFTISRDDSKNSLYLQMNSLKTEDTAVYYCAREPKYWIDFDLWGRGTLVTVSS VL: [about 100 residues not written out]FGGGTKVEIK | neutral
3 | Ab67: anti-CD117 antibody, VH SEQ ID NO: 9, VL SEQ ID NO: 10 (antibody, V domains shown) VH: EVQLVESGGGLVQPGGSLRLSCAASGFTFSDADMDWVRQAPGKGLEWVGRTRNKAGSYTTEYAASVKGRFTISRDDSKNSLYLQMNSLKTEDTAVYYCAREPKYWIDFDLWGRGTLVTVSS VL: [about 100 residues not written out]FGGGTKVEIK | neutral
4 | Ab68: anti-CD117 antibody, VH SEQ ID NO: 89, VL SEQ ID NO: 90 (antibody, V domains shown) VH: EVQLVESGGGLVQPGRSLRLSCTASGFTFSDHDMNWVRQAPGKGLEWVGRTRNAAGSYTTEYAASVKGRFTISRDDSKNSLYLQMNSLKTEDTAVYYCAREPKYWIDFDLWGRGTLVTVSS VL: [about 100 residues not written out]FGGGTKVEIK | neutral
5 | Ab69: anti-CD117 antibody, VH SEQ ID NO: 99, VL SEQ ID NO: 100 (antibody, V domains shown) VH: EVQLVESGGGLVQPGGSLRLSCAASGFTFVDHDMDWVRQAPGKGLEWVGRTRNKLGSYTTEYAASVKGRFTISRDDSKNSLYLQMNSLKTEDTAVYYCAREPKYWIDFDLWGRGTLVTVSS VL: [about 100 residues not written out]FGGGTKVEIK | neutral
